# ± gives the standard deviation of the averaged measurements. Some of the results follow.
# Tested on: PfAP2-LT AP2 domain (GST-tagged)
# Assay: gcPBM binding intensity (ln(normalized median fluorescence intensity)); higher = stronger DNA binding
# Method in brief: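 Probes on an Agilent 4 × 180k array were primer-extended, double-stranded and 36 bp long, taken from intergenic genomic regions, with negative controls added. GST-tagged P. falciparum DNA-binding domains from E. coli, about 25 μg on average, were applied to the array for 1 h in 1× PBS containing 1% milk, 0.2 mg/ml BSA, 0.5% salmon testes DNA and 0.03% Triton X-100. Binding intensity, obtained after Alexa488 anti-GST antibody detection and a 488 nm scan, is the highest Masliner-normalised natural-log median intensity across replicate spots of either probe orientation.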
row,Sequence,gcPBM binding intensity (ln)
1,CAAAAAAAAATCTGTAGTACTTATTAATATTGCTGT [XGTACX_site4767],8.63 ± 0.47
2,CAAGGAACCAGACACACACACATAAATGTATATATA [CACACA_site752],9.62 ± 0.47
3,TGATTATTATAATTTAGTACATAATATTTTATATAA [XGTACX_site6125],8.26 ± 0.38
4,ATATATGGAAAGAGTAGTACTATTATAGGGGTGTTA [XGTACX_site6785],8.98 ± 0.35
5,AAAACAAAAGAATTCACACATATATATATATATATA [CACACA_site4777],10.1 ± 0.16
6,AAAATTAAACATACATCACACATGCATTATATTATG [CACACA_site5517],8.96 ± 0.4
7,TTAAACGTACATAATACACACACATGTAGACATATA [CACACA_site8635],9.29 ± 0.36
8,AAAATTAACGAGTGCACACATATTTAGATAAAATAC [CACACA_site2936],9.25 ± 0.37
9,AAATAAGAGCGTAGCACACACGCATTTTATAAATGG [CACACA_site4571],9.19 ± 0.57
10,TCATATAAGTTTAGTAGTACTAAAAGTTAGAGAGAA [XGTACX_site3430],8.97 ± 0.57
11,ATTTATTTTAAATAAGTGCAAAATGGTTATAAATAA,8.58 ± 0.44
12,ATAAATATTTTGTAAGCATGCTTTTAAAAAAAGAAA [TGCATGCA_site572],8.48 ± 0.49
13,AAAATTTCAATAAATACACACATATAAATATAGATT [CACACA_site6893],8.9 ± 0.47
14,ATGTACTATAGGCACACACACTCACATATATATATA [CACACA_site5745],9.62 ± 0.3
15,TGAAAATATATAACGCGTACAAAAAGGAAATACAAT [XGTACX_site3534],9.28 ± 0.39
16,AAATAGTTGTTAAAGGTGCACAATATGGATATAAGA,9.14 ± 0.59
17,TTTTTTTTTTTTTTTGCATGTTGAAAATAAAATTAT [TGCATGCA_site86],8.37 ± 0.23
18,GGAATAACCAGACACACACACACATATAAATATGTA [CACACA_site7632],10.1 ± 0.41
19,TAAATACAAGAACTGACACACATACATACTACATTT [CACACA_site5561],9.38 ± 0.28

row,Sequence,gcPBM binding intensity (ln)
1,ATATATTTTTATATAGTGCAAGTAATAAAAAGGAAT,8.82 ± 0.39
2,GGAAAAAAATAAAATAAGTATTTTACATACATATTG [TGCATGCA_negctrl_site10],8.42 ± 0.52
3,ATAACATTCAAAAAATGTACAAACATATGAATAAAT [XGTACX_site7013],8.97 ± 0.42
4,ATATCATTTTATTTGTGTACTTAAAAAGTTGCAATG [XGTACX_site4099],8.67 ± 0.4
5,TACCTATACAGACACACACACACACGCCCACAAAAA [CACACA_site6375],10.2 ± 0.37
6,TTTTTATATTTATATAAATAAAAAAATAACAAAATG [XGTACX_negctrl_site231],8.29 ± 0.33
7,TAAAATTAAACAAAAAAAAAGAAAAAAAAAAAAAAG [CACACA_negctrl_site1098],8.41 ± 0.59
8,CTCCATATTAGACACACACACAAATGAAAAAAATAT [CACACA_site7420],9.56 ± 0.45
9,TGAACATACATCAAAAGTACAAACTCGCATGTTATA [XGTACX_site3320],8.95 ± 0.42
10,CCGCCATTGTACCATCCACACACATATATATATGTA [CACACA_site8866],9.46 ± 0.33
11,AATGTAGACACATATGTACACACATATATATGTATA [CACACA_site9014],9.23 ± 0.47
12,AATATTCTATATGATACATGCATGATGGAATAAAAA [TGCATGCA_site980],8.93 ± 0.3
13,TTTTGGTATACGTAATTATATAATATGTTAATCAAT [CACACA_negctrl_site645],8.61 ± 0.36
14,TTTTTAAAAAGTAACACACACTCTTATATATAATGA [CACACA_site3618],8.97 ± 0.46
15,AAAAAAAACAGACACACACACATAAATATAAATAAA [CACACA_site6214],9.74 ± 0.31
16,TATACATATATATATATATATAGATATATTCACGTG [XGTACX_negctrl_site265],9.31 ± 0.21
17,AAAATAATAATAAATGCATGTGTTGTTTACTAAGAA [TGCATGCA_site528],8.85 ± 0.42
18,TGTTCAGTATTGCACACACACAACAAAATAAAAAAA [CACACA_site6314],9.64 ± 0.36
19,ATATATATATATATATGTACTTAATGTTATTATATA [XGTACX_site4508],9.48 ± 0.028

row,Sequence,gcPBM binding intensity (ln)
1,GAAATGTGATAATATACACACACGCATATATATATA [CACACA_site4332],9.88 ± 0.2
2,ATTATATATATATTATGTACATATATTGAAGTGGAT [XGTACX_site5916],8.77 ± 0.44
3,TACGAAATCATATGTACACACACATATATATATATA [CACACA_site5216],9.8 ± 0.14
4,ACGGATTAAAAAATGTGTACGCACAAAAAAAAAAAT [XGTACX_site8259],9.14 ± 0.52
5,TTCATATAATTCATCTGTACATATTGATAGTATGCA [XGTACX_site6386],8.72 ± 0.49
6,TGTTTTATTTATTAAGCACACGCGATTTAAAAAATA [CACACA_site981],8.43 ± 0.38
7,TCAAATGTGTAATCTTGTACACATTAAAAGAAAAAA [XGTACX_site8822],8.73 ± 0.49
8,AATAATATATGGACATGTACATAATATATATTTTTT [XGTACX_site312],8.93 ± 0.47
9,ATCAAAATTGTCATTACACACCTTTATTTTTATAAT [CACACA_site5071],8.95 ± 0.4
10,AAGAAAAAGAATAACCTTATTTCTATATACTAATTT [TGCATGCA_negctrl_site477],8.46 ± 0.33
11,TTTGTTCTTTTTGAAGTGCACTGAAATATAACAAAA,8.33 ± 0.31
12,AAAAAAACACACACATATATATATATATATATATAT [GTGCAC_negctrl_site498],10.2 ± 0.16
13,TAATATATTAATATATGTACGTATTTTTATTAATAT [XGTACX_site5346],8.69 ± 0.35
14,TTAAATAATTCTTTTAGTACACACGAATAAGCAGAT [XGTACX_site623],8.74 ± 0.42
15,TATCTTATATATAAGTGTACGCAGATTCTTACGATA [XGTACX_site6058],8.54 ± 0.47
16,ATAATTAATGATGTATGTACGGAATTTATATATTTG [XGTACX_site5685],8.7 ± 0.47
17,ATAGTAATAGAATGATTGCACTTAAATTTTCCCTCT,8.71 ± 0.3
18,GTATACATATTTATAATAATAAATGTCTTATATTTT [CACACA_negctrl_site688],8.61 ± 0.46
19,TATGTATTAATGAGAACATGCAAAATAATAAACAAT [TGCATGCA_site362],8.95 ± 0.43
